Reference: the supplement of paper PMC11417369
This is one part of the list.

System: PfHDP1 homeodomain (GST-tagged)
Experiment: gcPBM binding intensity (ln(normalized median fluorescence intensity)); higher = stronger DNA binding
In short: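 An Agilent 4 × 180k array of primer-extended double-stranded 36-bp intergenic genomic probes, with negative controls, was incubated for 1 h with GST-tagged P. falciparum DNA-binding domains expressed in E. coli. Alexa488 anti-GST antibody detected bound protein, scanned at 488 nm. Binding intensity is the highest Masliner-normalised natural-log median intensity across replicate spots of either probe orientation.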

Row | Sequence | gcPBM binding intensity (ln)
1 | TGAATAATCAATAGTACACACATATAAATATAAATA [CACACA_site7345] | 6.49
2 | TTTTATTTATTATTATGTACACACTATATTAAAACA [XGTACX_site1265] | 6.64
3 | ACTTAGGAAATAAAACGTACATTAAATATATACATA [XGTACX_site2990] | 6.25
4 | GTATGTATGTATGTATGTACTTATTAATCAGTAAAA [XGTACX_site3844] | 7.42
5 | TATAAATAAATAGATACACACATATTTATAAATACA [CACACA_site6219] | 6.52
6 | ATAAAAGATATGTATATGTATATGTATATATATATA [TGCATGCA_negctrl_site214] | 8.93
7 | GCTTAAGGTAAATATAAAATATAGTGTATACTTTAG [XGTACX_negctrl_site585] | 6.25
8 | TTACGCTGCTATATAGTGCACATAATATATGACCTG | 9.85
9 | TTTATAATTCTTACAACACACAATGTACTTTTATAT [CACACA_site8340] | 6.53
10 | TTTATTTCCTTTTTGTGTACATATATATGTAATTCA [XGTACX_site1718] | 7.07
11 | TTAAGGCATCAACATAGTACAATTTTTCTATAATAA [XGTACX_site1114] | 6.05
12 | ATTTAATACAAATACACACACAAATAAATACAGATA [CACACA_site5956] | 6.87
13 | GTGATGGTACAATATACACACTTAAAAAAAAAAAAT [CACACA_site5360] | 6.53
14 | ATTCTACGCACGCGCACACACAACAAAAAAAAAAAA [CACACA_site3538] | 8.22
15 | TATATACATATATATTGTACTTATTTTTATAATGTC [XGTACX_site3453] | 6.21
16 | CATGTGTGATAATGATGTACTATATTAAGCTAGTCC [XGTACX_site2690] | 6.28
17 | TTATTTTTTTATTCATGTACACAAGAACATTTCATT [XGTACX_site5744] | 6.55
18 | TACAAATATGGACACACACACATATATATATATATA [CACACA_site4488] | 9.27
19 | TAAATATATTGGAGAGGTACACTTTTGGCATTGAAA [XGTACX_site8447] | 6.56
20 | GTATAATAGAAACACACACACACACCCAAAAAAAAA [CACACA_site2010] | 6.87
21 | GTATATATAATGTGCCGTACATTTATATATTCAATA [XGTACX_site1051] | 6.25
22 | AAGTATGTATCACAAAGTACTTAAGCATATATTTAA [XGTACX_site4121] | 6.57
23 | TTGTAATAAATAAAAGTGCATATATGGTTCCACTAT [GTGCAC_site9944] | 7.81

Row | Sequence | gcPBM binding intensity (ln)
24 | TTAAATGTAATATAATGTACGGATATTTACCATAAA [XGTACX_site1472] | 6.22
25 | AAATGTAATAATAAATGTACAAACATATATATGTAT [XGTACX_site8718] | 6.59
26 | TATATATACTTTTATGTACACACCTATAATATGGGT [CACACA_site1759] | 6.73
27 | AAGTTTAAAATCTTTGCACACATATAAATAAATATA [CACACA_site2554] | 10.2
28 | TGCACCCACCAACACACACACAACTAAAAAATAATG [CACACA_site2566] | 6.95
29 | ATAAATAAATAAAAAAGTACATTTCCACTTTTAACA [XGTACX_site81] | 5.98
30 | CAATATATTATATGGGTGCAAACCACATATAAATAA | 8.55
31 | TTAGGTATATATAAACGTACTCACAATATCATATAA [XGTACX_site8743] | 6.54
32 | TATTATATCTTTTCAAGTACACATAACATACTTATT [XGTACX_site1081] | 6.75
33 | TATAATTATATAAATTGTACATAAAAAGTTTTTACT [XGTACX_site3621] | 6.32
34 | ACATATTAAATATGAGTGCAATATATATATATATAA | 9.25
35 | ATTAAATTTCCTTGAGTGCACATTTTGTTAAAATAT | 9.29
36 | ATAACATATTTCTTTTGTACTCAAAATAAAATTAAT [XGTACX_site2479] | 6.2
37 | AAATATATTTTATTTTGTACTTATGTATAAAATATA [XGTACX_site914] | 6.18
38 | AATTTTGTTGAGCACACACACATACATACATACATA [CACACA_site3154] | 7.64
39 | TACAATGAAAAAATAACATGCAATTATATTTCTCTT [TGCATGCA_site833] | 6.13
40 | TTTAAATATTTTAATACACACACGATATGTACAAAA [CACACA_site4455] | 6.73
41 | ACGTGATAAATAAATACATGCATAGAAAGATGCATA [TGCATGCA_site91] | 6.21
42 | TATATATATATATATTGTACTAGTGCATATATATAC [XGTACX_site7926] | 10.3
43 | ACCAAAAAAAAAAAAAAAAAAATATACATATATATA [GTGCAC_negctrl_site582] | 6.66
44 | ATTTTATTTTCTCACACACACATATATATATATATA [CACACA_site5781] | 9.25
45 | ACATATGTTAAAAAGGCATGCATTCTTTTTATTTTA [TGCATGCA_site1043] | 6.27
46 | TTTTTTTTGGTATAATGTACATTTTCACTTATGTAT [XGTACX_site3259] | 6.97

Row | Sequence | gcPBM binding intensity (ln)
47 | TGGTATTGAATTTTTTGTACACATAAAATATATATA [XGTACX_site7614] | 6.45
48 | TATTTTAATTTTTTTTTGTTTTTTCTAATACATGTA [CACACA_negctrl_site1399] | 6.05
49 | GTGCCATTTAAAAAATGTACAAGAAAATGTTCATCA [XGTACX_site2865] | 6.13
50 | GAAGAAAAAAAATATACACACATACGATCATACATA [CACACA_site5227] | 6.75
51 | TCCTTTATTTTTAAAGTGCATATACATGTACATTAT [GTGCAC_site9445] | 7.62
52 | GCAACACAAAAAATTACACACAAAAAAAATATATTA [CACACA_site916] | 6.49
53 | CAGCTCTTAAGAATTACACACATATACACATATATA [CACACA_site7524] | 6.7
54 | ATACATAAATACAAACGTACATACATACATACATAC [XGTACX_site7824] | 7.97
55 | TATACCTATAAATACACACACATATAAATAAATATA [CACACA_site6153] | 6.85
56 | TTATACAAATTCATGGGTACAAACAAACATATATCA [XGTACX_site6237] | 6.83
57 | AAAATATATACTCCATCACACACCAAAAAGAAAAAA [CACACA_site2542] | 6.53
58 | AAAAAAAAAAAAAAATGTACATATGGTATGCATATA [XGTACX_site3225] | 6.61
59 | GCTTATAAAGGCAGAAGTACTGTATTCCTATATATA [XGTACX_site8865] | 6.13
60 | AATAATAAAAAATATACACACATATATATATATATA [CACACA_site25] | 9.26
61 | TTGGCATACGGACACACACACACACCCAGACATATA [CACACA_site4492] | 6.57
62 | TTTTAATGTACCAGTGTGCACCTTGCGTACATATTA [GTGCAC_site9957] | 9.36
63 | AATAATATATATATAATACACACTATTATAATCACA [CACACA_site1310] | 6.76
64 | ATTCAAAAGATGTATACACACATGTGTATAATATAA [CACACA_site7197] | 7.94
65 | TAATTTCCTTAAGAATGTACTTACATTTTATTATTT [XGTACX_site5998] | 6.02
66 | TAATATGAAATGTGTACACACGCACCCACAAAAAAA [CACACA_site8949] | 7.62
67 | GTTTATGTATTATTATGTACGTATCATAATATATAT [XGTACX_site2385] | 6.87
68 | ATGGACAAGTTAAACGCACACAAATATATACAGACA [CACACA_site1652] | 7.33
69 | ACAAAATAATTGTTTACACACCCATTTGTAATTTTA [CACACA_site3615] | 6.42

Row | Sequence | gcPBM binding intensity (ln)
70 | TCTGTAAACATATTCACACACATAAATTCGCATATA [CACACA_site1866] | 6.58
71 | TGTATGAAAATAAATGCATGCCAAATATATATATAT [TGCATGCA_site132] | 8.72
72 | AAAATGAAATATGTTATATATATATATATATATATA [CACACA_negctrl_site1752] | 9.4
73 | TATCATTGTTCATGCTTGCACTTTTGTTACTGTTCC [GTGCAC_site9425] | 6.75
74 | GAAAATTTATATTGCACACATAGGGAATAAAAAAAA [CACACA_site2146] | 10.3
75 | AAAAAGAGGAAAAAGATAAAGAAATTAAAGGAGAGA [CACACA_negctrl_site423] | 6.5
76 | TTTAATCATTTTATTTGTACTCATAAAAAATATAAT [XGTACX_site5537] | 6.37
77 | AAAAAATATAAAAAAAGTACACAAAAACTACAAAAA [XGTACX_site2677] | 6.65
78 | GGTAGTTATTATCTCCGTACTTATAAAGAAAAAAGG [XGTACX_site4674] | 6.57
79 | GAATAAAAATTTTAATGTACATATTTTTTATTTATA [XGTACX_site8935] | 6.14
80 | ATATTTTATATGTTCACACATACATAAACATATTTT [CACACA_site4948] | 6.53
81 | TACAAATATATAAAATGTACATATATATACATATTA [XGTACX_site3029] | 6.13
82 | TTTATTTTCATATGAACACACATATAAATATTATAA [CACACA_site7172] | 6.85
83 | ATAACTTTATTTTCCTGTACACACATTTGACATATT [XGTACX_site7192] | 7.3
84 | ATATATAATATAAGATGTACAATAAAATCTATATAT [XGTACX_site546] | 6.35
85 | CATAAAATTGTGAAGTGTACATATTTTTAAATATAA [XGTACX_site8986] | 6.4
86 | AGAAATATCTAATTGTGTACTCAAGAAAAAGTTACG [XGTACX_site372] | 6.61
87 | CTTACAGACATATATACACACATGTATATTTTATAT [CACACA_site549] | 6.69
88 | AAGAAGAAACGGAAAAGTACAAAGAAGAAATAAGTA [XGTACX_site3680] | 6.93
89 | GAGGATGCCTATGGCACACATTATAAAACTGTCGCT [CACACA_site4322] | 5.87
90 | ATGTTTTTAATTTATTGTACATTAATTTGTATTATT [XGTACX_site253] | 6.9
